According to article PMC4669756:
These are yes or no findings as the source states them, for the method shown. Binding seen in cells or lysates may run through a third protein. Some binding calls cover weakened binding; strength is not graded here. For some of these results: Where a sequence is shown, tags or fusion partners need not be part of it. Blank lines part the entries; values can stand above or below the molecule they belong to.

By UniProt entry, the sequences of proteins in these tests, tags left out. Where a name states a change or a piece, a line headed by the entry shows the natural chain unless it says otherwise.
UniProt P07355: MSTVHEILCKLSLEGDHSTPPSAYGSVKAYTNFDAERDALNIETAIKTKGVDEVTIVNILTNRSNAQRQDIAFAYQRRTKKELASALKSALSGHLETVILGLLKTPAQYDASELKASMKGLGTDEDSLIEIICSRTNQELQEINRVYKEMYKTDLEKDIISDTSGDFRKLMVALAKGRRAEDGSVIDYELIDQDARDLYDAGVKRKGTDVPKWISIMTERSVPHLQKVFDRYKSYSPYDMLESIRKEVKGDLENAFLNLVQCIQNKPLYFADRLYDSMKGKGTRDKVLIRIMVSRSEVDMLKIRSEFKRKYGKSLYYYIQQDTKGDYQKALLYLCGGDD

What was measured:
[1] = target: GST-tagged p50 subunit of NF-κB (UniProt P19838); experiment: pull-down; GST-p50 and cFLAG-ANXA2 cotransfected into HEK-293; NP-40 lysis buffer (137 mM NaCl, 1 mM EDTA, 10% glycerol, 1% NP-40); Glutathione HiCap Matrix, 4 °C overnight; western blot
[2] = target: His/Xpress-tagged p50 subunit of NF-κB (UniProt P19838); experiment: pull-down; His/Xpress-p50 and cFLAG-annexin cotransfected into HEK-293; lysate in Ni-NTA lysis buffer (20 mM NaH2PO4, 300 mM NaCl, 5 mM imidazole, 0.05% Tween 20); Ni-NTA-agarose beads, 4 °C overnight; western blot
[3] = target: endogenous p50 subunit of NF-κB of HeLa cells (human (endogenous in HeLa)) (UniProt P19838); experiment: co-IP; endogenous proteins, HeLa extracts, cells with or without 10 ng/ml TNF-α for the indicated time; IP with anti-p50 rabbit polyclonal IgG on protein A/G agarose, 4 °C overnight, lysis buffer with 1 mM EDTA and 1% NP-40; blot with anti-ANXA2
[4] = target: endogenous p50 subunit of NF-κB of Mia-Paca2 cells (human (endogenous in Mia-Paca2)) (UniProt P19838); experiment: co-IP; endogenous proteins, Mia-Paca2 extracts; IP with anti-p50 rabbit polyclonal IgG on protein A/G agarose, 4 °C overnight, lysis buffer with 1 mM EDTA and 1% NP-40; blot with anti-ANXA2
[5] = target: T1, His/Xpress-tagged p50 subunit of NF-κB, P19838; experiment: pull-down; His/Xpress-p50 and cFLAG-annexin cotransfected into HEK-293; lysate in Ni-NTA lysis buffer (20 mM NaH2PO4, 300 mM NaCl, 5 mM imidazole, 0.05% Tween 20); Ni-NTA-agarose beads, 4 °C overnight; western blot; settings: remark: other sources report otherwise
T1 chain: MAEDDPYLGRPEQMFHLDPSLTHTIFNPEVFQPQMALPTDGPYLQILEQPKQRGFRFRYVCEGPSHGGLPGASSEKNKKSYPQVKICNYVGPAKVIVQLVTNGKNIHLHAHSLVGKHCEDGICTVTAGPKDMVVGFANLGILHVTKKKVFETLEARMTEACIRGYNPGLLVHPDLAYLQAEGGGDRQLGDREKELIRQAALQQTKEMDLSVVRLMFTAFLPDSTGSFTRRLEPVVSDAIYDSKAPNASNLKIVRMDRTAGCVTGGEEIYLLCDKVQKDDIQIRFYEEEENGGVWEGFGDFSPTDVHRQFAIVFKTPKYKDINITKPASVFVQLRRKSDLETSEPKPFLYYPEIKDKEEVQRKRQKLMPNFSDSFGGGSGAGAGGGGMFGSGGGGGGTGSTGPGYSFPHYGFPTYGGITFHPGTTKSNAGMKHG

binding [1]: binds
binding [2]: binds
Molecule: C-terminal FLAG-tagged human annexin A2 (wild type) (from UniProt P07355 1-339)

binding [2]: no binding
Molecule: N-terminal deletion mutant of ANXA2 (lacking amino acids 1-23) (from UniProt P07355 24-339) (domain or fragment)

binding [3]: binds
Molecule: endogenous annexin A2 of HeLa cells (from UniProt P07355 1-339)

binding [4]: binds
Molecule: endogenous annexin A2 of Mia-Paca2 cells (from UniProt P07355 1-339)

binding [5]: binds
B1: C-terminal FLAG-tagged human annexin A4, P09525 1-319 (protein)
chain: MATKGGTVKAASGFNAMEDAQTLRKAMKGLGTDEDAIISVLAYRNTAQRQEIRTAYKSTIGRDLIDDLKSELSGNFEQVIVGMMTPTVLYDVQELRRAMKGAGTDEGCLIEILASRTPEEIRRISQTYQQQYGRSLEDDIRSDTSFMFQRVLVSLSAGGRDEGNYLDDALVRQDAQDLYEAGEKKWGTDEVKFLTVLCSRNRNHLLHVFDEYKRISQKDIEQSIKSETSGSFEDALLAIVKCMRNKSAYFAEKLYKSMKGLGTDDNTLIRVMVSRAEIDMLDIRAHFKRLYGKSLYSFIKGDTSGDYRKVLLVLCGGDD

binding [2]: no binding
B2: C-terminal FLAG-tagged human annexin A1 (protein, UniProt P04083 1-346)
chain: MAMVSEFLKQAWFIENEEQEYVQTVKSSKGGPGSAVSPYPTFNPSSDVAALHKAIMVKGVDEATIIDILTKRNNAQRQQIKAAYLQETGKPLDETLKKALTGHLEEVVLALLKTPAQFDADELRAAMKGLGTDEDTLIEILASRTNKEIRDINRVYREELKRDLAKDITSDTSGDFRNALLSLAKGDRSEDFGVNEDLADSDARALYEAGERRKGTDVNVFNTILTTRSYPQLRRVFQKYTKYSKHDMNKVLDLELKGDIEKCLTAIVKCATSKPAFFAEKLHQAMKGVGTRHKALIRIMVSRSEIDMNDIKAFYQKMYGISLCQAILDETKGDYEKILVALCGGN
